Reference: the RNAGym collection of RNA variant scans (doi:10.7554/elife.90254)
The source gives no read counts; variants with many changes may rest on few reads.

B1: OR4K15 (parent)
chain: GUUAACGGUCAUAGGCCAUGGAAACUAGGAGCACCAUUUCGCUGCCAGUGAAGAAAUGAACAAAGAAAAUCUGGGCCAGGCAGGCAUCAAAAGAAAUAGUCUUGCGCUCAACCAGAAAGUCUGUAAUCAUUUUAAGGGUA

Variants of: B1
Assay: self-cleavage, relative activity (ratio to wild type); higher = more cleavage; in vitro, sequencing; the parent is a self-cleaving ribozyme

Variant	self-cleavage
A94G A114G A117G U131C	0.15
A94G A114G A135G	0.82
A94G A125G U130G	0.46
A94G C105A U122A	0.01
A94G U97C U108A A114G	0
A94G U100C A140U	1.75
A94G U100C U102A	1.82
A94G U100C U103A	1.76
A94G U102C A117G	2.93
A94G U103C A116U	0.09
A94G U103C A135G	0.43
A94G U103C U120A U127C	0.15
A94G U108C A111U	0.01
A94G U122G A140G	2.94
A94G U124C A126G	0.6
A94G U127C U131C	1.04
A94U A111G U122G U139C	0
A94U A111U A126G	0.04
A94U A118C A140G	0.58
A94U U97A A114G	0.79
A94U U102C U127C A140G	1.82

Variant	self-cleavage
A94U U122C A129G	0.74
A94U U127C U133C	0.53
A95G A110G A116G	0.07
A95G A110U A129G	1.55
A95G A111U C113A	0.01
A95G C113G A118U	0
A95G C128A U132C	1.87
A95G G106A A111U	0.01
A95G U102C A125G	0.51
A95G U102C A126G U132A	1.57
A95G U102C U132A	2.92
A95G U103C U132C	0.86
A95G U108A A125U	0
A95G U120C C128U U130A	1.27
A95G U120C G137A	0.94
A95U A96G C107U U127C	0
A95U A111G A117G A118G	0.02
A96G A111G U127A	0.02
A96G A126G A129U U132C	0.25
A96G C113G U131C	0.01
A96G G104A U120A	0.06

Variant	self-cleavage
A96G G104A U122A	0.01
A96G U97C A116G U132C	0.05
A96G U100C A118G	1.75
A96G U100C G137A	1.48
A96G U100C U102C	2.47
A96G U103C A126G	0.58
A96G U103C U131C	0.67
A96G U108C A129G	0
A96G U120A U132C	2.03
A96G U124A A126G	1.17
A96G U130C A135G	0.69
A96U A110G A118U	0.03
A96U U102A A116G	0.25
A96U U122C A125C A129G	1.24
U97A A98G U133C	1.88
U97A A110G A116G A126G	0
U97A C105U A118U U122C	0.04
U97C A111U A135G	0
U97C U100G U124C	1.16
A98G A111G C121U	0.02
A98G A117G A140G	0.19

Variant	self-cleavage
A98G A118G U131A	0.03
A98G A118G U139C	0.28
A98G A129U A135G	0.26
A98G C107U A135G G137A	0
A98G U103C U132C	0.17
A98U A110C A111G	0
A98U A114G A125G	0.22
A98U A114G U127C	0.09
G99A A116U A118G U122A	0
G99A U122C A129G	0.14
U100A A110G A125G	0.09
U100A A116G A117U A140G	0.42
U100A C113U A135G	0
U100C A110G A111U U120A U131C U132C	0
U100C A111U A117G C128U	0.13
U100C A114C U120C U130C	0.02
U100C C109U A118G A126G	0.34
U100C U102C A117G	2.14
U100C U108C A111G A135G	0.01
U100G U108C A134G	0.01
C101A A118G A129G	0.02
